Assay results from the supplement of paper PMC11417369.
Some of the results follow.

The sequences below were run on PfAP2-HC AP2 domain (GST-tagged) (assay: gcPBM binding intensity (ln(normalized median fluorescence intensity)); higher = stronger DNA binding).
Outline: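 GST-tagged P. falciparum DNA-binding domains, expressed in E. coli (about 25 μg on average), were applied for 1 h to an Agilent 4 × 180k array of primer-extended double-stranded 36-bp intergenic genomic probes plus negative controls. The binding buffer was 1× PBS with 1% milk, 0.2 mg/ml BSA, 0.5% salmon testes DNA and 0.03% Triton X-100. Bound protein was detected with Alexa488 anti-GST antibody and scanned at 488 nm. Binding intensity is the highest Masliner-normalised natural-log median intensity across replicate spots of either probe orientation.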

Sequence | gcPBM binding intensity (ln)
AGTAGAATATCCCCTACACACCCAAATAATTTACAA [CACACA_site8339] | 10.3
TTTATATATTTTAGGTGTACATAAATTTTTATATAT [XGTACX_site5597] | 9.63
AACTTACTTGGACATACACACATATATATATATATA [CACACA_site2978] | 9.92
TCAAATATTCATAAATGTACATTTATTTTTCTCCTT [XGTACX_site5827] | 9.72
TAACTTAATATTAATGCACACAATTTATATATATAT [CACACA_site3903] | 9.78
GAAACATACATTTTTTGTCCGTAAGTATTATAATAA [XGTACX_site3273] | 9.57
ATACATCAAGGACACACACACACACCCACACCCACA [CACACA_site8013] | 11.1
AATGCAAAGGTGAAAGAACACACAAAAAAAAAAAAA [CACACA_site9333] | 9.58
GTGTTAAATTTTTGAACATGCAAGTTTTATTATTGA [TGCATGCA_site478] | 9.44
TTTTGTTGAAAAAAAAAAAAAAAATTAAATTAAATT [GTGCAC_negctrl_site636] | 9.15
CATAGACACGAACATACACACGGACATACATACGGA [CACACA_site8101] | 9.95
GTAACAAATTAATAGTGTACATATTTTAAAAAAATA [XGTACX_site7150] | 9.66
GTGTGCTTTTTACGAGTGCAAGTATTTTGGTGGTTA [GTGCAC_site9496] | 9.83
GTACACATATAATATACACACAACAAATATGCACAT [CACACA_site1010] | 10.1
TAATTTTTATTTATAATAATATATGACATATATCCA [XGTACX_negctrl_site359] | 9.56
ATGAACAAAATGTAATGTACGAATAATTATTCATAT [XGTACX_site4812] | 9.8
TTTTATTCCTATTTATTTATATTTTTGTCTTATATC [CACACA_negctrl_site125] | 9.88
TTAAGAATATCTACATGTACATACCAAAGAAATACA [XGTACX_site3125] | 9.56
TAATTTTTTTTTTTTTTTTTTTTTTTTTTTTTCCTT [CACACA_negctrl_site1095] | 8.98
GGAATAATATAAAACACACACATAAATATAAATATA [CACACA_site3376] | 10.7
TATAGACAAACACATACATGCATACATACATACATA [TGCATGCA_site273] | 9.75
AAAAAAAAGTTCTACACACACAAAAAAATATTTTTT [CACACA_site2309] | 10.2
AATGTCAATTTTAATAGTACACAAATATATATATAT [XGTACX_site521] | 9.59
AATGACCATTTTTAAAATTACAAATACATACAACTG [TGCATGCA_negctrl_site420] | 9.57
